Some of these densities may be calculated back from excess volumes.
Experiment: xn = mol fraction of the nth substance listed
Settings: 101 kPa

`CC[n+]1ccn(C)c1.F[B-](F)(F)F` + OCCO showed a mass density (303.15 K, x1 = 0.0993) of 1143.9 kg/m3, a mass density (303.15 K, x1 = 0.2001) of 1171 kg/m3 and a mass density (303.15 K, x1 = 0.3023) of 1192.4 kg/m3. For the same molecule, the mass density (303.15 K, x1 = 0.5003) was 1223.3 kg/m3, the mass density (303.15 K, x1 = 0.598) was 1235.3 kg/m3 and the mass density (303.15 K, x1 = 0.7003) was 1246.6 kg/m3. The mass density (303.15 K, x1 = 0.7997) was 1256.5 kg/m3, the mass density (303.15 K, x1 = 0.8997) was 1265.7 kg/m3 and the mass density (303.15 K, x1 = 1) was 1272.8 kg/m3. For the same molecule, the mass density (313.15 K, x1 = 0.0993) was 1136.4 kg/m3, the mass density (313.15 K, x1 = 0.2001) was 1163.3 kg/m3 and the mass density (313.15 K, x1 = 0.3023) was 1184.5 kg/m3. The mass density (313.15 K, x1 = 0.5003) was 1215.4 kg/m3, the mass density (313.15 K, x1 = 0.598) was 1227.5 kg/m3 and the mass density (313.15 K, x1 = 0.7003) was 1238.8 kg/m3. It also gave a mass density (313.15 K, x1 = 0.8997) of 1258.1 kg/m3, a mass density (313.15 K, x1 = 1) of 1265.2 kg/m3 and a mass density (323.15 K, x1 = 0.0993) of 1128.9 kg/m3. For the same molecule, the mass density (323.15 K, x1 = 0.2001) was 1155.6 kg/m3, the mass density (323.15 K, x1 = 0.3023) was 1176.7 kg/m3 and the mass density (323.15 K, x1 = 0.4011) was 1193.4 kg/m3. For the same molecule, the mass density (323.15 K, x1 = 0.5003) was 1207.6 kg/m3, the mass density (323.15 K, x1 = 0.598) was 1219.7 kg/m3 and the mass density (323.15 K, x1 = 0.7003) was 1231.2 kg/m3. It also gave a mass density (323.15 K, x1 = 0.8997) of 1250.6 kg/m3, a mass density (323.15 K, x1 = 1) of 1257.7 kg/m3 and a mass density (333.15 K, x1 = 0.3023) of 1168.9 kg/m3. The mass density (333.15 K, x1 = 0.4011) was 1185.6 kg/m3, the mass density (333.15 K, x1 = 0.5003) was 1199.9 kg/m3 and the mass density (333.15 K, x1 = 0.598) was 1212.1 kg/m3. It also gave a mass density (333.15 K, x1 = 0.7003) of 1223.6 kg/m3, a mass density (333.15 K, x1 = 0.8997) of 1243.1 kg/m3 and a mass density (333.15 K, x1 = 1) of 1250.3 kg/m3.

From a compilation of properties of binary mixtures (doi:10.1007/s10953-016-0518-2)
